# Measured values reported in paper PMC4336329 (PLoS ONE, 2015).
# The campaign covered roughly 310,000 compounds. About 14,000 (4.5%) showed an effect of 50% or more. The effect is printed as a negative number. The list shows a part of the results.
# Target: human ether-à-go-go-related gene (hERG) potassium channel (human, UniProt Q12809)
# Assay: primary screen, population patch clamp on CHO cells stably expressing hERG
# 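Also: peak tail current of the secondary pulse compared with the same well before compound.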
# human ether-à-go-go-related gene (hERG) potassium channel, sequence (Q12809 whole entry, looked up): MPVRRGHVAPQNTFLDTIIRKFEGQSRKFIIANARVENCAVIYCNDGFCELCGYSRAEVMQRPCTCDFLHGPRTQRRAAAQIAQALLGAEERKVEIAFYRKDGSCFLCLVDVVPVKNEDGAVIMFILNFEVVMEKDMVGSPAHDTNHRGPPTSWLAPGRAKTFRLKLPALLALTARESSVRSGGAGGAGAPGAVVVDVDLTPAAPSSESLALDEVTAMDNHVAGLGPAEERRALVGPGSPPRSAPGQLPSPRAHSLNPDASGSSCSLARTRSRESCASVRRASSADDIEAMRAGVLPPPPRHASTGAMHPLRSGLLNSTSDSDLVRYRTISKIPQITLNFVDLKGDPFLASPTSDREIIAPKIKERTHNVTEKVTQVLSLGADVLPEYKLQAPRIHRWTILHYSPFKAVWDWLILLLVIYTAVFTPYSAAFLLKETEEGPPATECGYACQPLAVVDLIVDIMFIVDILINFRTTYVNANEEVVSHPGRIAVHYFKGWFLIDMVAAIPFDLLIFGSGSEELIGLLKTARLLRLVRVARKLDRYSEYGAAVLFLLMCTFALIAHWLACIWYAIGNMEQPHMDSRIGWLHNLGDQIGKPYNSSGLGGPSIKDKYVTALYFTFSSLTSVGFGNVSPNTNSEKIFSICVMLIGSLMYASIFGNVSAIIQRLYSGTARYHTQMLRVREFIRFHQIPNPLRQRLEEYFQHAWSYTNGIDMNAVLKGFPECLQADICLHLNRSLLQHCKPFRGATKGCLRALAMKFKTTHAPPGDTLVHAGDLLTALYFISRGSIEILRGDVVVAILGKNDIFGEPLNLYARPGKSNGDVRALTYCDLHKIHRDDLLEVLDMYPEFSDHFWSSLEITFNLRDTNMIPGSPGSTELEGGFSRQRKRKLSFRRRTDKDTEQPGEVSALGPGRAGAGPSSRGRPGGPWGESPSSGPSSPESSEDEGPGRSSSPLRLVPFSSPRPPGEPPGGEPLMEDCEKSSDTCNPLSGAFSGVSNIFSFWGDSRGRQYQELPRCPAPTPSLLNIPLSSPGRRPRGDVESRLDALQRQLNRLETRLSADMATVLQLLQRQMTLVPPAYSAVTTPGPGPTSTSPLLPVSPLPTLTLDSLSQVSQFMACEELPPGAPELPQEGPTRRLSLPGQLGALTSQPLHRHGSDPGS
row,SMILES,"hERG current change (%, negative = inhibition) at 10uM [%]"
1,O=C(O)c1ccc(NC(=S)NCc2ccccc2)cc1,13.5
2,Cc1nn(Cc2cccc(F)c2)c(C)c1NC(=O)c1c([N+](=O)[O-])c(C)nn1C,-9.72
3,Cc1sc(NC(=O)CSc2nc(O)cc(=O)[nH]2)nc1-c1ccccc1,9.36
4,O=C1NC(NS(=O)(=O)c2ccccc2)(C(F)(F)F)C(=O)N1Cc1cccnc1 (centres unmarked),2.31
5,Cc1ccc(S(=O)(=O)NCc2cccnc2)s1,1.72
6,O=C(Nc1ccc(Cl)cc1Cl)c1n[nH]c(Cn2cncn2)n1,1.48
7,CCCCCN=Cc1c(C)[nH]n(-c2nc3ccccc3s2)c1=O,-65.5
8,Cc1ccccc1-n1ncc2c(SCC(=O)N3c4ccccc4CC3C)ncnc21 (centres unmarked),-1.9
9,Cc1nc2nc3c(c(=O)n2[nH]1)CCCC3,1.21
10,O=C(NCCc1c[nH]c2ccc(Cl)cc12)c1ccc([N+](=O)[O-])cc1,6.57
11,O=C(CCN1C(=O)c2ccccc2C1=O)Nc1ccc2c(c1)OCCO2,4.36
12,COC(=O)Cc1[nH]nc2c1C1(C(=O)N(Cc3ccccc3)c3ccccc31)C(C#N)=C(N)O2 (centres unmarked),-16.6
13,Cc1ccc(P(=O)(CO)c2ccc(C)cc2)cc1,-0.463
14,COc1cccc2c3c(c(=O)[nH]c12)CC(C)(C)O3,4.46
15,CN(CC(=O)Nc1ccc(F)cc1)C(=O)COC(=O)CNC(=O)c1sc2ccccc2c1Cl,15.5
16,Fc1ccccc1/C=C1\CCCC2=C1Nc1ncnn1C2c1ccccc1F (centres unmarked),-25.7
17,COc1ccc2oc(C(=O)c3ccccc3)c(NC(=O)CN3CCN(C)CC3)c2c1,-59.8
18,NC(=O)C(=O)N/N=C/c1c(F)c(F)c(F)c(F)c1F,15.5
19,CN1CCN(CCCNC(=O)c2ccc(/C=C3\Oc4ccccc4N(Cc4ccc(Cl)cc4)C3=O)cc2)CC1,-1.51
20,Cc1ccc(S(=O)(=O)N(C)C)cc1NC(=S)N(CCC#N)Cc1cccnc1,-10.3
21,O=c1cc(O)c(-c2cccc(Cl)c2)c(Cl)[nH]1,12
22,C=CCn1cc(/C=C2/NC(=O)NC2=O)c2ccccc21,18
23,CN(C)S(=O)(=O)c1cccc(NC(=O)CSc2nc3ccccc3[nH]2)c1,-22.2

row,SMILES,"hERG current change (%, negative = inhibition) at 10uM [%]"
1,CN(C)C1N(C(=O)c2ccccc2)N=C2c3ccccc3S(=O)(=O)N21 (centres unmarked),11.3
2,CCC(CC)N1CCN(S(=O)(=O)c2ccc(OC)cc2)CC1.O=C(O)C(=O)O,11.5
3,COC(=O)Nc1ccc(S(=O)(=O)Nc2ccc(O)cc2)cc1,-3.18
4,CC(NC(=O)c1ccc(S(C)(=O)=O)cc1)c1cccc2ccccc12 (centres unmarked),-5.61
5,Cc1cc(NC(=O)CSCC(=O)OC(C)C(=O)c2cc(C)c(C)cc2C)no1 (centres unmarked),1.53
6,Nc1c(N)c2ccccc2oc1=O,0.889
7,Cc1ccc(OCc2cc(C(=O)N(CCO)Cc3cccs3)no2)cc1C,-9.81
8,NC(=O)c1ccc(C(F)(F)F)n(Cc2c(Cl)cccc2Cl)c1=O,25.1
9,Cc1cc(C)nc(Nc2n[nH]c(COc3ccc4ccccc4c3)n2)n1,9.69
10,CCn1nc(C(=O)Nc2cccc(S(=O)(=O)N3CCCC3)c2)c2ccccc2c1=O,-22.3
11,Cc1c(C(=O)O)cccc1-c1ccc(/C=N/Nc2ccc(Br)cc2)o1,30.2
12,CC(=O)c1ccc(NC(=S)Nc2ccc3[nH]c(=O)[nH]c3c2)cc1,17
13,CCOC(=O)CC1C(=O)NCCN1Cc1cccc(OC)c1 (centres unmarked),12
14,O=C(O)c1cccc(S(=O)(=O)N2CCc3ccccc3C2)c1,12.6
15,O=[N+]([O-])c1ccc(/C=N/Nc2ncccc2[N+](=O)[O-])s1,7.1
16,CC(C)OC(=O)C1C(=O)CC(C)(O)C(C(=O)OC(C)C)C1c1cccnc1 (centres unmarked),35.1
17,O=C(COC(=O)c1cc2ccccc2cc1O)NC(=O)NCc1ccco1,23.1
18,O=C(NCC(c1cccnc1)N1CCOCC1)C1CCCCC1 (centres unmarked),5
19,CS(=O)(=O)N1CCN(C(=O)Cc2ccccc2)CC1,12.8
20,Cc1ccc(-n2c(C)cc(/C=C3/C(=N)N4C(c5ccccc5)=CSC4=NC3=O)c2C)cc1,12.7
21,CCOc1cc2[nH]c(=S)n(CCC(=O)N3CCc4ccccc4C3)c(=O)c2cc1OCC,3.34
22,O=C(Cc1coc2ccc3ccccc3c12)N1CCc2ccccc21,17.8
23,CCOC(=O)C1C(c2ccc(OC)cc2)N(C)OC1(O)C(F)(F)F (centres unmarked),8.45

row,SMILES,"hERG current change (%, negative = inhibition) at 10uM [%]"
1,COc1ccc(-c2ccc(OC)c([C@H]3[C@H]4C=CC[C@@H](C)[C@@H]4C(=O)N3Cc3ccccc3)c2)cc1OC,20.6
2,COc1ccc(S(=O)(=O)N2CCN(C(=O)Nc3ccccc3OC)CC2)cc1,-8.69
3,CCn1ncc(S(=O)(=O)NCc2ccco2)c1C,-0.626
4,CN(C)c1cc(-c2ccccc2)nc(-c2ccccc2)n1,14
5,O=C(CN1C(=O)NC2(CCCC2)C1=O)OCCOc1cccc(Cl)c1,-7.43
6,O=C(O)C(=O)/C(=C\c1ccsc1)c1ccc2ccccc2n1,15.1
7,Cl.O=C1c2ccccc2-c2cccnc21,21.4
8,Cc1ccccc1OCCN1CCC(Cc2ccccc2)CC1.O=C(O)C(=O)O,-58.5
9,CCOc1ccc(OCCC(=O)NNC(=O)c2ccccc2Cl)cc1,-4.73
10,CCOC(=O)N1CCN(C(=O)c2cc3c(-c4cccc(OC)c4)nn(C)c3s2)CC1,-35.6
11,COc1ccc(O)c(/C=N\NC(=O)CCn2nnc3ccccc32)c1,-14.7
12,O=C(O)/C=C/C(=O)OC1CC2CCC1C2 (centres unmarked),14
13,O=C(CSc1nc2ccccc2c(=O)n1CC1CCCO1)NCc1ccccc1 (centres unmarked),-11
14,Cn1nc(C(F)(F)F)c(-c2cccc(C(F)(F)F)c2)c1NC(=O)c1nccnc1C(=O)O,3.44
15,CN(C)S(=O)(=O)c1ccc(C(=O)Nc2ccccc2SCCC#N)cc1,-12.4
16,COc1ccc(NC(=O)c2cccc(F)c2)cc1Cl,1.72
17,CC1CN(C(=O)COC(=O)Cc2c(F)cccc2Cl)CC(C)O1 (centres unmarked),6.12
18,COc1cc(/C=C2\SC(=Nc3ccccc3)NC2=O)cc(Cl)c1O,11.3
19,CC1CCN(Cc2nnnn2CCCC(=O)N(C)C(C)c2ccccn2)CC1 (centres unmarked),6.32
20,COc1ccc(OC)c(NC(=O)Cn2cccc2)c1,-14.1
21,CCCn1cc(SCC(=O)NCc2ccco2)c2ccccc21,-25.9
22,CCOC(=O)Cc1c(C)c2c(C)[nH]nc2oc1=O,-12.1
23,Cn1c(N)c(C(=O)CSc2ncn[nH]2)c(=O)n(C)c1=O,18.8

row,SMILES,"hERG current change (%, negative = inhibition) at 10uM [%]"
1,COc1ccc(/C=C(\NC(=O)c2ccc(OC)cc2)C(=O)Nc2ccc(C(=O)O)cc2)cc1,9.17
2,CC1(C)CC(=O)C2=C(C1)NC(=O)NC2c1ccc([N+](=O)[O-])cc1 (centres unmarked),16
3,CCOc1ccc(C(=O)NCC(=O)OCCCOC(=O)CNC(=O)c2ccc(OCC)cc2)cc1,8.79
4,CCN(C(=O)c1cnc2scc(C)n2c1=O)c1ccccc1C,5.18
5,CCCCOC(=O)c1cc(=O)[nH]c2ccccc12,-14.4
6,Cc1cc(SCC(=O)[O-])nc2ccccc12,12.3
7,O=C(Nc1c(C(=O)N2CCOCC2)oc2ccccc12)c1cccc([N+](=O)[O-])c1,-20.2
8,Cn1c(=O)[nH]c(=O)c2c1nc(N1CCCC1)n2CCO,12
9,Cc1ccc(/C=C/C(=O)OCC(=O)NC(=O)NCc2ccccc2)cc1,15.7
10,CN(C)c1nc(N)c([N+](=O)[O-])c(N2CCCCCC2)n1,2.69
11,CCc1nc2ccccc2n(CC)c1=O,16.3
12,CC(NC(=O)c1cc2c(=O)n3ccccc3nc2n(CC2CCCO2)c1=N)c1ccccc1 (centres unmarked),-75.2
13,COc1cc2c(C#N)c(N3CCCCC3)nc(N)c2c(N)n1,1.39
14,O=C(CSc1nnnn1-c1cccc2c1CCCC2)NC1CCCC1,11.5
15,C=CCn1c(SCc2c(C)noc2C)nc2sc3c(c2c1=O)CCC(C)C3 (centres unmarked),9.79
16,COc1ccc(NC(=O)c2c(-c3c(Cl)cccc3Cl)noc2C)c(OC)c1,3.18
17,O=C(Nc1ncc(Cc2cc(Cl)ccc2Cl)s1)c1ccc([N+](=O)[O-])cc1,7.87
18,OCc1cn(-c2ccc(Cl)cc2)nn1,24.2
19,O=C(Nc1cccc(Cl)c1)c1ccccc1NC(=O)C1CCCCC1C(=O)O (centres unmarked),16.4
20,Cc1c(Nc2cc(=O)oc3ccccc23)c(=O)n(-c2ccccc2)n1C,-8.22
